Some of the results follow.
The sequences below were run against T1, OsWOX13 (Oryza sativa, UniProt Q5QMM3 1-267) (assay: protein-binding microarray (RPBM); PBS, 2% BSA, 51.3 ng/ul salmon testes DNA, 50 uM zinc acetate, 200 nM TF, 25 C, 1 h; high values mean tight binding). Settings: protein: recombinant; tags: N-terminal polyhistidine and DsRed monomer fusion (pET32a); label: CyDye5-dUTP incorporated in the synthesized complementary strand; 3' TTTTT single-stranded linker to array surface; dsDNA, one strand shown.
T1 sequence: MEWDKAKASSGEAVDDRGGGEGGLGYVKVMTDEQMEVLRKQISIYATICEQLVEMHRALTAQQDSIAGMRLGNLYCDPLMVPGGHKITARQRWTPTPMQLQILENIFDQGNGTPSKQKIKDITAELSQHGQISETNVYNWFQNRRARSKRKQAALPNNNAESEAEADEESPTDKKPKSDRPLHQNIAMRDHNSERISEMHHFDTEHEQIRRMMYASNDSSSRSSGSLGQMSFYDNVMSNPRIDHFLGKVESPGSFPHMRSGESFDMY
How it was run: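 For the binding signal, per-feature fluorescence intensity was read in arbitrary units on an Axon 4000B scanner. Before scanning, a 2% BSA-blocked custom Agilent array made double-stranded with Cy5-dUTP was washed after 1 h at 25 °C with 200 nM protein and 50 µM zinc acetate. The proteins were Ni–NTA-purified transcription factors with N-terminal polyhistidine and DsRed fusions, expressed in E. coli BL21-CodonPlus.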

Sequence | binding signal
AATCCAATCACAAGCAGGCTACTATGCATCAAGAGAAAGACGGAGTCACCTAGTGCAG | 6980 fluorescence intensity (a.u.)
GTTTCAAATTATGAAATCTTAATGTTCCCTGTGTGAGAGTCGGAGTCACCTAGTGCAG | 6340 fluorescence intensity (a.u.)
AAACCCTTAATTGCTCATGATTTTGCCATTATAATATAGGCGGAGTCACCTAGTGCAG | 44600 fluorescence intensity (a.u.)
ACTAAATAGATGAATTCATAAATATGAAAATTTTCCGACCCGGAGTCACCTAGTGCAG | 39800 fluorescence intensity (a.u.)
GTCTAATTTAATGTTCAACCGATCGAGGCACACACACACTCGGAGTCACCTAGTGCAG | 11200 fluorescence intensity (a.u.)
TCTCATCCTAATTAAATTTACCATTTAACACTATGGGTTACGGAGTCACCTAGTGCAG | 19700 fluorescence intensity (a.u.)
GGGTCAGTTGATTGGTCGAGTTGAGGATGGCGGTGTTATACGGAGTCACCTAGTGCAG | 7070 fluorescence intensity (a.u.)
TTTGGGAATTAATTGGGAGACTTCTGCTGTTCTTGGTTGCCGGAGTCACCTAGTGCAG | 27000 fluorescence intensity (a.u.)
CTTTACAATTAATACATGTTCCACTTGTCTCTCTCACAGACGGAGTCACCTAGTGCAG | 4970 fluorescence intensity (a.u.)
GATTCAAATTTGAATTTGAATTATATCTGATTCAAATTTGCGGAGTCACCTAGTGCAG | 3940 fluorescence intensity (a.u.)
ACTTGCCTAAATTAGAGAGAAATCACGATGACCAAAACGGCGGAGTCACCTAGTGCAG | 4790 fluorescence intensity (a.u.)
CTCATGATTATTAGCTACTCCACAGCGTTAGCTTCGTCCACGGAGTCACCTAGTGCAG | 14700 fluorescence intensity (a.u.)
AAATAAATCAACTTCTACCTTGTTGCCTACCCTTATTCGCCGGAGTCACCTAGTGCAG | 3190 fluorescence intensity (a.u.)
ATCTTTGATTTGTCCTAAATTTGTGATGGGGATGTCACCGCGGAGTCACCTAGTGCAG | 50700 fluorescence intensity (a.u.)
TAGAATTAATTAAAATTCGAAAAGAAATTGACAAACACTACGGAGTCACCTAGTGCAG | 21700 fluorescence intensity (a.u.)
GTTACCTATTAATTAATAGGAAGATGATATAAATAGTTTACGGAGTCACCTAGTGCAG | 19400 fluorescence intensity (a.u.)
ATCCTTAATTAGTACGGAGTATGTTCTTATTATTCTAATTCGGAGTCACCTAGTGCAG | 14600 fluorescence intensity (a.u.)
TTGTTAAAATTGTACAATTTTATTATAATGACCAAAATACCGGAGTCACCTAGTGCAG | 3870 fluorescence intensity (a.u.)
ACTTGATCATACGAGTCAGTGTAGGATTTGATTGGTTGCACGGAGTCACCTAGTGCAG | 9660 fluorescence intensity (a.u.)
GTCTCGATATAATTATGAATTTTGAAATATATAAACCCATCGGAGTCACCTAGTGCAG | 8250 fluorescence intensity (a.u.)
GTAAATTTTGAACAGTAAATGATACTGTTGGATTATTCTCCGGAGTCACCTAGTGCAG | 7930 fluorescence intensity (a.u.)

Sequence | binding signal
GTTGGTGTCAATTGATTTCCAAGTATAAACTTATAACTTTCGGAGTCACCTAGTGCAG | 4100 fluorescence intensity (a.u.)
CAGAAAATGAAAATAAATATCCTAATAGTGTGAGCAGCTGCGGAGTCACCTAGTGCAG | 3270 fluorescence intensity (a.u.)
CTATCAATTATACGTGACGAAACATTGAGATATATGTATTCGGAGTCACCTAGTGCAG | 7060 fluorescence intensity (a.u.)
ATAAAATTTTGGTTAGTGCGAACTTGTCTTCTGCTTATGTCGGAGTCACCTAGTGCAG | 3190 fluorescence intensity (a.u.)
AGTATATTGAAGGTAATCTGATTTGTGGATCGATAATAAGCGGAGTCACCTAGTGCAG | 6020 fluorescence intensity (a.u.)
ATCCTAGATAATTAGGTGTAACATCCTAGAACCAAATCTACGGAGTCACCTAGTGCAG | 6320 fluorescence intensity (a.u.)
AAGATTGAAGGCAACCAAACCAACAAGGATGGATGCTTCTCGGAGTCACCTAGTGCAG | 16500 fluorescence intensity (a.u.)
GAAGCCTCAATTATTGCACCAACGATAAGTTCACCTACTTCGGAGTCACCTAGTGCAG | 3580 fluorescence intensity (a.u.)
CATAAACTGATCTCATTTGGTTTTGAGTAAGGCCTGGTTTCGGAGTCACCTAGTGCAG | 9070 fluorescence intensity (a.u.)
ATCCAAATTTCCCGTTTATGTAGCAATCATGAAGAAGAGCCGGAGTCACCTAGTGCAG | 6230 fluorescence intensity (a.u.)
GAAGGGTTAATTGGATTCATGCCATTATAAATTTGTTCGTCGGAGTCACCTAGTGCAG | 25900 fluorescence intensity (a.u.)
CTAATACCAATCAAATTAAGCAGCGCAATATCATCGGCGCCGGAGTCACCTAGTGCAG | 9270 fluorescence intensity (a.u.)
CCGTTGATGGAGATGGCTGTGAGCTCGCCGACGAATTAAGCGGAGTCACCTAGTGCAG | 5720 fluorescence intensity (a.u.)
CTCAAATAAATTGGAAAATCCCTCCTTTGCCAAATTTCCTCGGAGTCACCTAGTGCAG | 23000 fluorescence intensity (a.u.)
AAGACCTATCAATCTGTCAGCTACTACGGTTGTGAGTGAACGGAGTCACCTAGTGCAG | 5840 fluorescence intensity (a.u.)
GCTGTCAGATGTGATTGCCGGGCCCAACGTCGTGTCTTCACGGAGTCACCTAGTGCAG | 8580 fluorescence intensity (a.u.)
AGCAATTACAGTTCAAAACAGGGTCAAATAAGCAATTGTCCGGAGTCACCTAGTGCAG | 3470 fluorescence intensity (a.u.)
TTTGGTCAATTGATTTACACATAAATTATGGAGATAATGTCGGAGTCACCTAGTGCAG | 33700 fluorescence intensity (a.u.)
ATATATAGTTTGATTGAGTTTGCGTTCGCTGAATCTGGTTCGGAGTCACCTAGTGCAG | 11200 fluorescence intensity (a.u.)
TAATAAACTGATACAGATACTCCTCCACTCGTAAGCGTGGCGGAGTCACCTAGTGCAG | 9680 fluorescence intensity (a.u.)
GGATAATTTGGCAATAATGTAGGCCAATGCAGGATCCTGCCGGAGTCACCTAGTGCAG | 22300 fluorescence intensity (a.u.)

Sequence | binding signal
TTAAGTAATTAAGAGGTGATAGTTAATTTATGCATGCATGCGGAGTCACCTAGTGCAG | 30400 fluorescence intensity (a.u.)
AACACGTACTTAATTGATACGAGCGCAGCTCAATCATCAGCGGAGTCACCTAGTGCAG | 34100 fluorescence intensity (a.u.)
CTTACCTTAACATTCTTTGCAGATTGGCTAAATCAGAATGCGGAGTCACCTAGTGCAG | 4320 fluorescence intensity (a.u.)
AGAACTTTCAATTAATTTGTTCCAAGCAATATTAGCATACCGGAGTCACCTAGTGCAG | 19000 fluorescence intensity (a.u.)
AGTGTTGGCAATGATTGGGACAGGCACCAACTTGCAGTTCCGGAGTCACCTAGTGCAG | 8240 fluorescence intensity (a.u.)
GGAGATGGATTTTAATCACTCGAGTGGACATCCACTCGTTCGGAGTCACCTAGTGCAG | 3430 fluorescence intensity (a.u.)
CCGAAAATTGGACCTTAGACTATTGGACCAGAAATTGGACCGGAGTCACCTAGTGCAG | 17600 fluorescence intensity (a.u.)
ATGGGGTTATTTTCAAAATTGATTTTGAAAAGGCTTATGACGGAGTCACCTAGTGCAG | 4790 fluorescence intensity (a.u.)
GAGATTTGTTTGATGTATCAGGGTGTCACGTTGTCATGTTCGGAGTCACCTAGTGCAG | 3440 fluorescence intensity (a.u.)
AAGATGAGGTGATAGACTGACTAGCACTGAGCTTGCCCGGCGGAGTCACCTAGTGCAG | 14400 fluorescence intensity (a.u.)
TTAACAAAATTATTCATAGCCGTTGACTCTAGATTTTGGCCGGAGTCACCTAGTGCAG | 3580 fluorescence intensity (a.u.)
ACGCCATGATTGACAATGTGATGCTACAGTAAACATTTGCCGGAGTCACCTAGTGCAG | 53900 fluorescence intensity (a.u.)
AATACAATTTACTCAAATTTAGATCAAAATCAAAACGACTCGGAGTCACCTAGTGCAG | 4240 fluorescence intensity (a.u.)
GGTCTAATTGGGCCGTTGTCAACCTTGCATCTCAGCCCATCGGAGTCACCTAGTGCAG | 14400 fluorescence intensity (a.u.)
TTTGTGTCAATTAAATTCCACTGTGAGTATGCATATGGAACGGAGTCACCTAGTGCAG | 10400 fluorescence intensity (a.u.)
TGGGAGATTGTATTAAACAGAGGAGAACGATGGCGAAAGGCGGAGTCACCTAGTGCAG | 6630 fluorescence intensity (a.u.)
TATAACTGAATGTAAGCACACATGTCCTTTGTGCCGCTGCCGGAGTCACCTAGTGCAG | 8060 fluorescence intensity (a.u.)
GGTAATTGCGTTAATCTGGTCGCTTTCACTTTGTTCTACTCGGAGTCACCTAGTGCAG | 39300 fluorescence intensity (a.u.)
CAACGGTTAGATTAGATTGGTACTTCATGGTACATCGTGGCGGAGTCACCTAGTGCAG | 43200 fluorescence intensity (a.u.)
GAGATAAATTTATTAAGCCTAATTAATCCGTCATTAGAGTCGGAGTCACCTAGTGCAG | 3220 fluorescence intensity (a.u.)
TTTTAGCATAATTGAAGAGAGAGATTCTTCAAAATGCCACCGGAGTCACCTAGTGCAG | 21600 fluorescence intensity (a.u.)

Sequence | binding signal
TTCTTAATTGTATTTCTACATAGACTCTATACTCTACTTCCGGAGTCACCTAGTGCAG | 18300 fluorescence intensity (a.u.)
CTATGTATATAGTTGCTTAATTGACTTGTCATTAGTATGACGGAGTCACCTAGTGCAG | 8030 fluorescence intensity (a.u.)
ACTAACGAAATTACTACTTCGTAGGGGTAGGGGTGGCGTGCGGAGTCACCTAGTGCAG | 4700 fluorescence intensity (a.u.)
CGAATATATACGAATTAATTATATAGTATGCCTACAATAGCGGAGTCACCTAGTGCAG | 4710 fluorescence intensity (a.u.)
AATAAATCAAGTCATGGTCATCATAATGCAATGTCTCAACCGGAGTCACCTAGTGCAG | 3310 fluorescence intensity (a.u.)
GTGCCATATCTGCATTAATTGACCTTAATATTAGTTGGACCGGAGTCACCTAGTGCAG | 8350 fluorescence intensity (a.u.)
ATAATTGGAGGAGTCTATATACCCGGTTTTGTGGTTGGAGCGGAGTCACCTAGTGCAG | 28200 fluorescence intensity (a.u.)
CAACTACTAGTCAATTTAATAACCAATTCATATAATACTTCGGAGTCACCTAGTGCAG | 3360 fluorescence intensity (a.u.)
CTAAATGATATCAATTAAACGGTGTATCAATTCCATAAATCGGAGTCACCTAGTGCAG | 37100 fluorescence intensity (a.u.)
TTGATGATATAATTACATTTCTAGTAATTTATAAATTATCCGGAGTCACCTAGTGCAG | 21500 fluorescence intensity (a.u.)
ATCATGATTGCATGATTGATTGCACATTTGCATCATTTCCCGGAGTCACCTAGTGCAG | 63400 fluorescence intensity (a.u.)
ATCATCTGAATCCAATCAAGACAATAAACTTCTAACCAAACGGAGTCACCTAGTGCAG | 4440 fluorescence intensity (a.u.)
GAAGAGTGATGAGTGATGAGAATTGAGATCCCAATCCTGACGGAGTCACCTAGTGCAG | 5420 fluorescence intensity (a.u.)
TGGTAATTTTATGATTAAATTGACACTAACAAACTTATAGCGGAGTCACCTAGTGCAG | 57200 fluorescence intensity (a.u.)
ACTTTTCTGTCACATCGTTCCAATTTTAACCAAACTTTCACGGAGTCACCTAGTGCAG | 5500 fluorescence intensity (a.u.)
TTGATGATGTAACGTACGGTTGATTAATAATAAATTAGGTCGGAGTCACCTAGTGCAG | 18400 fluorescence intensity (a.u.)
CTTCAATGATTTTGTCGTCATCACCAATGCGGATCATATGCGGAGTCACCTAGTGCAG | 19000 fluorescence intensity (a.u.)
GGTGATTTGTTATAAAATAATGTTTCGTTCACTGCAACATCGGAGTCACCTAGTGCAG | 31000 fluorescence intensity (a.u.)
GCCAAAATAGCCATGATTAGCACTAACCCAGTACTGAAACCGGAGTCACCTAGTGCAG | 9890 fluorescence intensity (a.u.)
ATCGATGTTGCTTGATGGACAGATGTGTTCATCAGTAGAGCGGAGTCACCTAGTGCAG | 3830 fluorescence intensity (a.u.)
ATTATAAATTTACCACTGTCTTGAATCGTTATTATAAAACCGGAGTCACCTAGTGCAG | 7340 fluorescence intensity (a.u.)
